About 2,100 (0.72%) of roughly 290,000 compounds were called active. The shares of active, inactive and inconclusive entries below differ from those in the screen. Calls follow the shape of the dose curve; as a rule, active = well fitted inhibition curve with a large enough effect; inconclusive = small, poorly fitted or top-dose-only effect, or effect the other way; inactive = flat fitted curve, though single readings scatter. Where the call is inconclusive, the potency comes from a doubtful curve fit.
target: Fructose-bisphosphate aldolase (Giardia intestinalis (strain ATCC 50803 / WB clone C6)) (UniProt A8B2U2); experiment: qHTS Assay for Inhibitors of Fructose-1,6-bisphosphate Aldolase from Giardia Lamblia; settings: purified Giardia FBPA; activity, negative = inhibition: at 59.6 µM (top of the series) unless noted; also: nearly all actives have a fitted effect of over 55% in size
Method in brief: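 Giardia FBPA (40 nM reagent) was preincubated 10 min at RT with compound (up to 57.5 uM final), then substrate plus GAPDH/TPI/NAD/arsenate coupling system with diaphorase/resazurin was added; resorufin fluorescence (525/598 nm) was read after 20 min.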
% is scaled to controls: 0 for no effect and ±100 for the full control effect; potency is read from the fitted curve at half-maximal effect; tags tell the direction and shape of the fitted curve.

UniProt A8B2U2, sequence (A8B2U2 whole entry, looked up): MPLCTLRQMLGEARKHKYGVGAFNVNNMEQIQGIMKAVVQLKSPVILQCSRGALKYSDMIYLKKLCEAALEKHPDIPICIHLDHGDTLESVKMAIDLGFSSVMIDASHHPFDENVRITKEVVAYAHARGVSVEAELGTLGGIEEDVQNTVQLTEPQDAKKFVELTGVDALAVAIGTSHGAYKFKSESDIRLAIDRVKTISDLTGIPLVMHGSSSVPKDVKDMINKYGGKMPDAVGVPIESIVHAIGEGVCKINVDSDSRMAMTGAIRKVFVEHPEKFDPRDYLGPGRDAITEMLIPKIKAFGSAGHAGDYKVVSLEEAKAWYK

Structure (SMILES) | Potency | activity, negative = inhibition
Cc1cc(O)c(-c2cc(C(=O)NCc3ccc4c(c3)OCO4)[nH]n2)cc1C | inconclusive: 28.2 µM [activator, single point] | 
CC(C)C[C@H](NC(=O)c1nc[nH]c1C(=O)NC1CCN(C(=O)OC(C)(C)C)CC1)C(=O)OC(C)(C)C | inconclusive: 15.8 µM [inhibitor, partial curve] | 
Cc1nc(CNC(=O)CC2C(=O)NCCN2Cc2ccoc2)nc2c1CCCC2 (stereo not given) | inactive | 
OCCC1CN(CCCn2cccn2)CCN1C1CCCCC1 (stereo not given) | inactive | 
Cc1cc(C)c(S(=O)(=O)Nc2ccc3[nH]c(=O)[nH]c3c2)c(C)c1 | inconclusive: 15.8 µM [inhibitor, single point] | 
Cc1ccc2nc(C)cc(C(=O)N3CCCC(N4CCN(c5ccccc5C)CC4)C3)c2c1 (stereo not given) | inactive | 
Cc1cc(N/C(=N/S(=O)(=O)c2cc(F)ccc2F)c2ccccc2)n(-c2ccccc2)n1 | inactive | 
CNCCCNC(=O)c1ccc(/C=N/O)nc1 | active: 15.8 µM | 
COc1ccc(-c2noc(CNC(=O)c3ccc4c(c3)OCO4)n2)cc1 | inactive | 
COc1ccc(C2N(c3cc(Cl)ccc3OC)C(=O)C3CCCN32)c(OC)c1 (stereo not given) | inactive | 
CC(=O)N(C)c1ccc(NC(=S)Nc2cccc3ccccc23)cc1 | inconclusive: 3.15 µM [inhibitor, full curve, poor fit] | 
CSc1ccccc1NC(=O)CN(C)Cc1cccc(Cl)c1 | active: 22.3 µM | 
Cn1cccc1C(=O)Nc1nc(-c2ccccn2)cs1 | inconclusive: 15.8 µM [inhibitor, partial curve] | 
COc1ccc(CCN2CCCC(CN(C)Cc3cc(Cl)c(O)c(OC)c3)C2)cc1 (stereo not given) | inconclusive: 22.4 µM [inhibitor, single point] | 
O=[N+]([O-])c1ccccc1S(=O)(=O)Nc1cccc2cccnc12 | inconclusive: 14.1 µM [inhibitor, partial curve] | 
COc1ccc(C(=O)N2CCN(Cc3ccc(OC)c(OC)c3)CC2)cc1 | inconclusive: 25.1 µM [inhibitor, partial curve] | 
O=C(CSc1ccccn1)N/N=C/c1cccc([N+](=O)[O-])c1 | inconclusive: 22.3 µM [inhibitor, partial curve] | 
C=CCn1c(-c2ccoc2)n[nH]c1=S | active: 2.51 µM | 
C=CCn1c(SCC(=O)NC2CCS(=O)(=O)C2)nnc1-c1ccncc1 (stereo not given) | inactive | 
OCC1OC(C#Cc2ccccc2)C=CC1OCc1ccccc1 (stereo not given) |  | inactive: -1.7% [at 12.9 µM]
NC(=S)N/N=C/c1c[nH]c2ccccc12 | inconclusive: 15.8 µM [inhibitor, single point] | 
CC1CC(C)CN(S(=O)(=O)c2ccc(C(=O)Nc3nnc(C4CC4)o3)cc2)C1 (stereo not given) | inconclusive: 39.8 µM [activator, single point] | 
O=C(CCc1ccc(S(=O)(=O)N2CCOCC2)cc1)N/N=C/c1ccc(O)c(O)c1O | inconclusive: 9.98 µM [inhibitor, partial curve] | 

Structure (SMILES) | Potency | activity, negative = inhibition
Cc1cc2nc(CCN(C(=S)NCC(C)C)C3CCCC3)[nH]c2cc1C | inactive | 
O=c1c(O[C@@H]2O[C@H](CO)[C@H](O)[C@H](O)[C@H]2O)c(-c2ccc(O)c(O)c2)oc2cc(O)cc(O)c12 | inconclusive: 7.92 µM [inhibitor, partial curve] | 
COc1ccc(CC(C#N)(CO)c2nc3ccccc3[nH]2)cc1 (stereo not given) | inactive | 
Nc1nc2ncc(CNc3ccc(C(=O)N[C@@H](CCC(=O)O)C(=O)O)cc3)nc2c(=O)[nH]1 | inconclusive: 39.8 µM [inhibitor, partial curve] | 
COc1ccc(C(=O)c2ccccc2)c(O)c1O | inconclusive: 15.8 µM [inhibitor, partial curve] | 
Cc1ccc2cccc(S(=O)(=O)N3CCCc4ccccc43)c2n1 | inconclusive: 17.7 µM [inhibitor, partial curve] | 
O=C(O)Cc1cn(Cc2cccc(Cl)c2)c2ccccc12 | inconclusive: 19.9 µM [activator, partial curve] | 
Cc1ccc(CN2CCNC(=O)C2CC(=O)N(C)C2CCOCC2)cc1 (stereo not given) | inconclusive: 31.6 µM [inhibitor, partial curve] | 
O=C(/C=C/c1ccc(Cl)c(Cl)c1)NC1=NCCS1 | inactive | 
COc1cc(C2NC(=O)C(C#N)=C(S)N2c2ccccc2)ccc1OC(C)C (stereo not given) | inconclusive: 12.6 µM [inhibitor, partial curve] | 
COc1cc(O)c(C(CCN2CCN(c3ccccc3)CC2)c2ccc3c(c2)OCO3)c(OC)c1 (stereo not given) | inconclusive: 22.3 µM [inhibitor, partial curve] | 
COc1ccc(/C=C2/C(=O)NC(=S)N(C3CC3)C2=O)cc1CN1C(=O)c2ccccc2C1=O | inconclusive: 35.4 µM [inhibitor, single point] | 
COc1cc(/C=C/C(=O)N2CC(C)OC(C)C2)cc(OC)c1OC (stereo not given) | inactive | 
Cc1csc(NC(=O)CSc2sc3c(O)cc(=O)[nH]c3c2C#N)n1 | inconclusive: 17.8 µM [inhibitor, partial curve] | 
COc1nccnc1NS(=O)(=O)c1ccc(NC(=S)NC(=O)c2cccnc2)cc1 | inconclusive: 19.9 µM [inhibitor, partial curve] | 
Cn1ncc2c(Nc3ccc(O)cc3)nc(Cl)nc21 | inactive | 
O=C(NC(=S)Nc1ccccn1)c1ccccc1 | inconclusive: 14.1 µM [inhibitor, partial curve] | 
COc1cccc(CNC(=O)CN2C(=O)COc3ccc(S(=O)(=O)N4CCC(C)CC4)cc32)c1 | inactive | 
C/C(CC(=O)N1CCN(C=O)CC1)=N\NC(=O)c1ccc([N+](=O)[O-])cc1 | inconclusive: 17.7 µM [inhibitor, single point] | 
CN(C)c1ccc(/C=C/c2cc[n+](C)c3ccccc23)cc1 | inconclusive: 15.8 µM [inhibitor, partial curve] | 
O=C(Nc1nccs1)c1ccc(N2C(=O)[C@@H]3[C@H](C2=O)[C@H]2C=C[C@@H]3C2)cc1 | inactive | 
CCCc1nc2ccc(NC(C)=O)cc2c(=O)n1Cc1ccc(Cl)cc1 | inactive | 
